# Molecular target: spermidine/spermine N1-acetyltransferase (SSAT) (Mus musculus, UniProt P48026)
# Test: Spermidine acetylation assay with mouse liver 100,000xg supernatant
# Type: biochemical
# Parameters: from tissue; host or cells: liver 100,000xg supernatant of transgenic and non-transgenic male CD2F1 mice
# Conditions: transgenic mouse liver supernatant, mean±SE, n=10 different mice
# Sequence of spermidine/spermine N1-acetyltransferase (SSAT) (P48026 whole entry): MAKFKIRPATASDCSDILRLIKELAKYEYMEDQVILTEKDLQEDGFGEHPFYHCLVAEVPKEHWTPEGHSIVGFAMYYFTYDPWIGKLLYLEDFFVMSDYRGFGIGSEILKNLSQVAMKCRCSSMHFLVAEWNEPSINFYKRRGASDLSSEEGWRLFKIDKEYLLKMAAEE
smiles,measurement,value
NCCCCNCCCN [spermidine],Vmax of spermidine acetylation,0.009±0.002 nmol/min/mg protein

# Reference: patent US6811967B2 (The University of Manitoba, priority 2001, dated 2004)
